Results as given in publication PMC11045789.
Results are given in words; binding and its absence hold for the method and conditions named. Binding seen in cells or lysates may run through a third protein. Some results given as binding are weak or reduced against the parent protein; the word gives no strength. For some assays here: Tags and fused reporters may be left off the sequences shown.

Chains of the proteins cited; added tags and fusions are not shown. Lines headed by an entry give the natural chain unless they say otherwise; changes in a name come on top. A line that says so, or that is headed by a name, gives the form on record, which may keep a tag or linker. Residues count along the entry.
UniProt Q9QZS3: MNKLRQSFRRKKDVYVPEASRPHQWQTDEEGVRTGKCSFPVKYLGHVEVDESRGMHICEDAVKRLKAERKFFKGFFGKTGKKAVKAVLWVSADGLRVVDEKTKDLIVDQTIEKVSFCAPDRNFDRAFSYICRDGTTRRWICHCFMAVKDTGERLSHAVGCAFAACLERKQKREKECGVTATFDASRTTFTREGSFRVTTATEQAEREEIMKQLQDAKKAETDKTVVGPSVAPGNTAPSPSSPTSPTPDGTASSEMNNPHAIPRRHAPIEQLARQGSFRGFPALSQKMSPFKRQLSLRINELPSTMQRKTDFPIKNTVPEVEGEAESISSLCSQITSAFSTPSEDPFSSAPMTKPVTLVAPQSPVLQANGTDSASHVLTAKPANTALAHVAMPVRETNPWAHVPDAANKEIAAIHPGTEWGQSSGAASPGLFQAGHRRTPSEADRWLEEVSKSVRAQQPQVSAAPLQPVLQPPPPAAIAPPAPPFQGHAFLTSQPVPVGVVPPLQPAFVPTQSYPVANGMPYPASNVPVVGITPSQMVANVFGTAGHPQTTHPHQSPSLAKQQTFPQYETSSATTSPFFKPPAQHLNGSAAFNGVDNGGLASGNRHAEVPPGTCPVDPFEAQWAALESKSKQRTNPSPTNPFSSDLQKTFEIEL
Numb N + PTB domain (aa1-173): residues 1-173 of Q9QZS3
Numb with deletion of the N-terminus (aa1-25): residues 26-653 of Q9QZS3
Numb with deletion of the PTB domain (aa26-173) (Q9QZS3, form named): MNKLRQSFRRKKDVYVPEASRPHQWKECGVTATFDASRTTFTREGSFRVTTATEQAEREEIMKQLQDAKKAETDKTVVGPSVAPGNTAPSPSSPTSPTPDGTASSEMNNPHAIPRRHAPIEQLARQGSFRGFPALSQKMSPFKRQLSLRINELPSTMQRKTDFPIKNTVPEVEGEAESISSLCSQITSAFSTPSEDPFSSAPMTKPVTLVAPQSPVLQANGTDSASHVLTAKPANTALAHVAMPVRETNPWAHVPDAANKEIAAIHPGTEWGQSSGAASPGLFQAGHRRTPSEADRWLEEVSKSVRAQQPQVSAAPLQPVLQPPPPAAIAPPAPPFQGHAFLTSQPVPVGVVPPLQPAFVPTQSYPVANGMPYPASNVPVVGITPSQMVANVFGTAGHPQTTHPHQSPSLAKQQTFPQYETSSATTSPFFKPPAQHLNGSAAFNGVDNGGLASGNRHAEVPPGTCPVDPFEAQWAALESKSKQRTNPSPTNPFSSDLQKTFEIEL

Tests used:
[1] = molecular target: Numb-HA (UniProt Q9QZS3); experiment: co-IP; 293 T cells transfected with Ptch1-EGFP and Numb-HA
[2] = molecular target: Numb N + PTB domain (aa1-173) (UniProt Q9QZS3); experiment: co-IP; Numb truncated proteins tested with Ptch1; cells, tags and the precipitated partner not told in the text (Supplementary Fig. 5c)
[3] = molecular target: Numb with deletion of the N-terminus (aa1-25) (UniProt Q9QZS3); experiment: as above
[4] = molecular target: Numb with deletion of the PTB domain (aa26-173) (UniProt Q9QZS3); experiment: as above
[5] = molecular target: endogenous Numb (mouse (endogenous in NIH3T3)) (UniProt Q9QZS3); experiment: co-IP; endogenous Numb immunoprecipitated from lysates of NIH3T3 cells treated with Shh; endogenous Ptch1 detected

B1: Ptch1-EGFP (receptor, UniProt Q61115 1-1434)
chain: MASAGNAAGALGRQAGGGRRRRTGGPHRAAPDRDYLHRPSYCDAAFALEQISKGKATGRKAPLWLRAKFQRLLFKLGCYIQKNCGKFLVVGLLIFGAFAVGLKAANLETNVEELWVEVGGRVSRELNYTRQKIGEEAMFNPQLMIQTPKEEGANVLTTEALLQHLDSALQASRVHVYMYNRQWKLEHLCYKSGELITETGYMDQIIEYLYPCLIITPLDCFWEGAKLQSGTAYLLGKPPLRWTNFDPLEFLEELKKINYQVDSWEEMLNKAEVGHGYMDRPCLNPADPDCPATAPNKNSTKPLDVALVLNGGCQGLSRKYMHWQEELIVGGTVKNATGKLVSAHALQTMFQLMTPKQMYEHFRGYDYVSHINWNEDRAAAILEAWQRTYVEVVHQSVAPNSTQKVLPFTTTTLDDILKSFSDVSVIRVASGYLLMLAYACLTMLRWDCSKSQGAVGLAGVLLVALSVAAGLGLCSLIGISFNAATTQVLPFLALGVGVDDVFLLAHAFSETGQNKRIPFEDRTGECLKRTGASVALTSISNVTAFFMAALIPIPALRAFSLQAAVVVVFNFAMVLLIFPAILSMDLYRREDRRLDIFCCFTSPCVSRVIQVEPQAYTEPHSNTRYSPPPPYTSHSFAHETHITMQSTVQLRTEYDPHTHVYYTTAEPRSEISVQPVTVTQDNLSCQSPESTSSTRDLLSQFSDSSLHCLEPPCTKWTLSSFAEKHYAPFLLKPKAKVVVILLFLGLLGVSLYGTTRVRDGLDLTDIVPRETREYDFIAAQFKYFSFYNMYIVTQKADYPNIQHLLYDLHKSFSNVKYVMLEENKQLPQMWLHYFRDWLQGLQDAFDSDWETGRIMPNNYKNGSDDGVLAYKLLVQTGSRDKPIDISQLTKQRLVDADGIINPSAFYIYLTAWVSNDPVAYAASQANIRPHRPEWVHDKADYMPETRLRIPAAEPIEYAQFPFYLNGLRDTSDFVEAIEKVRVICNNYTSLGLSSYPNGYPFLFWEQYISLRHWLLLSISVVLACTFLVCAVFLLNPWTAGIIVMVLALMTVELFGMMGLIGIKLSAVPVVILIASVGIGVEFTVHVALAFLTAIGDKNHRAMLALEHMFAPVLDGAVSTLLGVLMLAGSEFDFIVRYFFAVLAILTVLGVLNGLVLLPVLLSFFGPCPEVSPANGLNRLPTPSPEPPPSVVRFAVPPGHTNNGSDSSDSEYSSQTTVSGISEELRQYEAQQGAGGPAHQVIVEATENPVFARSTVVHPDSRHQPPLTPRQQPHLDSGSLSPGRQGQQPRRDPPREGLRPPPYRPRRDAFEISTEGHSGPSNRDRSGPRGARSHNPRNPTSTAMGSSVPSYCQPITTVTASASVTVAVHPPPGPGRNPRGGPCPGYESYPETDHGVFEDPHVPFHVRCERRDSKVEVIELQDVECEERPWGSSSN
**Q.** B1 was tested. Which binding [1] did it give?
**A.** binds

**Q.** What about the binding [2] of the same binder?
**A.** binds

**Q.** And the binding [3]?
**A.** no binding

**Q.** What about the binding [4] of the same binder?
**A.** no binding

B2: endogenous Ptch1 (receptor, UniProt Q61115 1-1434)
chain: MASAGNAAGALGRQAGGGRRRRTGGPHRAAPDRDYLHRPSYCDAAFALEQISKGKATGRKAPLWLRAKFQRLLFKLGCYIQKNCGKFLVVGLLIFGAFAVGLKAANLETNVEELWVEVGGRVSRELNYTRQKIGEEAMFNPQLMIQTPKEEGANVLTTEALLQHLDSALQASRVHVYMYNRQWKLEHLCYKSGELITETGYMDQIIEYLYPCLIITPLDCFWEGAKLQSGTAYLLGKPPLRWTNFDPLEFLEELKKINYQVDSWEEMLNKAEVGHGYMDRPCLNPADPDCPATAPNKNSTKPLDVALVLNGGCQGLSRKYMHWQEELIVGGTVKNATGKLVSAHALQTMFQLMTPKQMYEHFRGYDYVSHINWNEDRAAAILEAWQRTYVEVVHQSVAPNSTQKVLPFTTTTLDDILKSFSDVSVIRVASGYLLMLAYACLTMLRWDCSKSQGAVGLAGVLLVALSVAAGLGLCSLIGISFNAATTQVLPFLALGVGVDDVFLLAHAFSETGQNKRIPFEDRTGECLKRTGASVALTSISNVTAFFMAALIPIPALRAFSLQAAVVVVFNFAMVLLIFPAILSMDLYRREDRRLDIFCCFTSPCVSRVIQVEPQAYTEPHSNTRYSPPPPYTSHSFAHETHITMQSTVQLRTEYDPHTHVYYTTAEPRSEISVQPVTVTQDNLSCQSPESTSSTRDLLSQFSDSSLHCLEPPCTKWTLSSFAEKHYAPFLLKPKAKVVVILLFLGLLGVSLYGTTRVRDGLDLTDIVPRETREYDFIAAQFKYFSFYNMYIVTQKADYPNIQHLLYDLHKSFSNVKYVMLEENKQLPQMWLHYFRDWLQGLQDAFDSDWETGRIMPNNYKNGSDDGVLAYKLLVQTGSRDKPIDISQLTKQRLVDADGIINPSAFYIYLTAWVSNDPVAYAASQANIRPHRPEWVHDKADYMPETRLRIPAAEPIEYAQFPFYLNGLRDTSDFVEAIEKVRVICNNYTSLGLSSYPNGYPFLFWEQYISLRHWLLLSISVVLACTFLVCAVFLLNPWTAGIIVMVLALMTVELFGMMGLIGIKLSAVPVVILIASVGIGVEFTVHVALAFLTAIGDKNHRAMLALEHMFAPVLDGAVSTLLGVLMLAGSEFDFIVRYFFAVLAILTVLGVLNGLVLLPVLLSFFGPCPEVSPANGLNRLPTPSPEPPPSVVRFAVPPGHTNNGSDSSDSEYSSQTTVSGISEELRQYEAQQGAGGPAHQVIVEATENPVFARSTVVHPDSRHQPPLTPRQQPHLDSGSLSPGRQGQQPRRDPPREGLRPPPYRPRRDAFEISTEGHSGPSNRDRSGPRGARSHNPRNPTSTAMGSSVPSYCQPITTVTASASVTVAVHPPPGPGRNPRGGPCPGYESYPETDHGVFEDPHVPFHVRCERRDSKVEVIELQDVECEERPWGSSSN
**Q.** For B2, which binding [5] is on record?
**A.** binds
